Data on 5 molecules can be found in patent publication US20100233079A1 (AbbVie / Abbott, published 2010).

The target of test [1] is T1, NRP1 (Neuropilin-1 Npn-1-His tag) (UniProt O14786-2 22-644, limits assumed).
T1 construct: Bought antigen with a His tag
As to the kind of experiment: direct bind ELISA, antigen on plate. As for the experimental part: (§1) Enzyme Linked Immunosorbent Assays to screen for antibodies that bind a desired target antigen were performed as follows. […] Plates were washed four times with PBS containing 0.02% Tween 20. […] Plates were washed four times after blocking with PBS containing 0.02% Tween 20.
(§2) One hundred microliters of 10 ng/mL goat anti-human IgG-FC specific HRP conjugated antibody (Southern Biotech #2040-05, Birmingham, Ala.) was added to each well of the desired target antigen plate or anti-polyHistidine antibody/Histidine tagged desired target antigen plate. Alternatively, one hundred microliters of 10 ng/mL goat anti-human IgG-kappa light chain specific HRP conjugated antibody (Southern Biotech #2060-05 Birmingham, Ala.) was added to each well of the desired target antigen/FC fusion plate and incubated for 1 hour at room temperature. Plates were washed 4 times with PBS containing 0.02% Tween 20.
A general note: In an ELISA, binding on a coated surface is turned into a signal by an enzyme label.

In a further test the target is T2, VEGF (VEGF 1-165 aa) (UniProt P15692 27-191).
T2 construct: range 1-165; '1-165 aa' is the vendor's designation; it probably counts on the mature VEGF165 isoform, not on the precursor
T2 sequence (looked up): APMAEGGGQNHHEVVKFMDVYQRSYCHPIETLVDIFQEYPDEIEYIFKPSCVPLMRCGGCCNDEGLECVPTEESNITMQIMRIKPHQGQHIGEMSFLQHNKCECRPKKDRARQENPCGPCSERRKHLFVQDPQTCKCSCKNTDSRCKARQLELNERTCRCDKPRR
As to the kind of experiment: direct bind ELISA, antigen on plate. As for the experimental part: as §1, §2

Test [2] addresses T3, rhIL-13 (recombinant human IL-13) (human, UniProt P35225 part only, limits assumed). As to the kind of experiment: cell-based or functional assay.
For test [3], the target named is T4, rhTNFα (human recombinant TNFα) (human, UniProt P01375 part only). As to the kind of experiment: cell-based or functional assay.
Test [4] concerns the target T3, rhIL-13 (recombinant human IL-13). As to the kind of experiment: SPR (Biacore 3000), DVD-Ig captured by anti-human IgG Fc, antigen in solution. For orientation: SPR reads the build-up and loss of mass on a sensor chip optically.
In test [5] the target is T4, rhTNFα (human recombinant TNFα). Described as above.
T4 sequence (P01375 77-233 limits assumed): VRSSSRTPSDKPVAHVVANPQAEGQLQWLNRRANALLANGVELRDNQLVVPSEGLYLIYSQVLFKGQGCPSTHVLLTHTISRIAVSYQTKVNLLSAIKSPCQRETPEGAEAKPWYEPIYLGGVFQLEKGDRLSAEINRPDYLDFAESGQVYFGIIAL

T3 sequence (P35225 35-146 limits assumed): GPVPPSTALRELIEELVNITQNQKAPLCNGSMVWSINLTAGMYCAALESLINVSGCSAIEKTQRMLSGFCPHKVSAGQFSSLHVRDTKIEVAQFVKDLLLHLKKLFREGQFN

B1: DVD695 (bispecific antibody, human IgG1, kappa)
heavy: EVQLVESGGGLVQPGGSLRLSCAASGFSFSSEPISWVRQAPGKGLEWVSSITGKNGYTYYADSVKGRFTISADTSKNTAYLQMNSLRAEDTAVYYCARWGKKVYGMDVWGQGTLVTVSSASTKGPEVQLVESGGGLVQPGGSLRLSCAASGYTFTNYGMNWVRQAPGKGLEWVGWINTYTGEPTYAADFKRRFTFSLDTSKSTAYLQMNSLRAEDTAVYYCAKYPHYYGSSHWYFDVWGQGTLVTVSS[human IgG1 constant region omitted here]
light: DIQMTQSPSSLSASVGDRVTITCRASQSISSYLAWYQQKPGKAPKLLIYGASSRASGVPSRFSGSGSGTDFTLTISSLQPEDFATYYCQQYMSVPITFGQGTKVEIKRTVDDDDKAAPDIQMTQSPSSLSASVGDRVTITCSASQDISNYLNWYQQKPGKAPKVLIYFTSSLHSGVPSRFSGSGSGTDFTLTISSLQPEDFATYYCQQYSTVPWTFGQGTKVEIKRTVAAPSVFIFPPSDEQLKSGTASVVCLLNNFYPREAKVQWKVDNALQSGNSQESVTEQDSKDSTYSLSSTLTLSKADYEKHKVYACEVTHQGLSSPVTKSFNRGEC
notes: NRP1 (outer) / VEGF (inner) DVD-Ig; also called DVD695 DVD-Ig
Turning to B1, the EC50 in test [1] was 320 pM; with VEGF (VEGF 1-165 aa) it was 370 pM.

B2: DVD696 (bispecific antibody, human IgG1, kappa)
heavy: EVQLVESGGGLVQPGGSLRLSCAASGFSFSSEPISWVRQAPGKGLEWVSSITGKNGYTYYADSVKGRFTISADTSKNTAYLQMNSLRAEDTAVYYCARWGKKVYGMDVWGQGTLVTVSSASTKGPEVQLVESGGGLVQPGGSLRLSCAASGYTFTNYGMNWVRQAPGKGLEWVGWINTYTGEPTYAADFKRRFTFSLDTSKSTAYLQMNSLRAEDTAVYYCAKYPHYYGSSHWYFDVWGQGTLVTVSS[human IgG1 constant region omitted here]
light: DIQMTQSPSSLSASVGDRVTITCRASQSISSYLAWYQQKPGKAPKLLIYGASSRASGVPSRFSGSGSGTDFTLTISSLQPEDFATYYCQQYMSVPITFGQGTKVEIKRLVPRGSAAPDIQMTQSPSSLSASVGDRVTITCSASQDISNYLNWYQQKPGKAPKVLIYFTSSLHSGVPSRFSGSGSGTDFTLTISSLQPEDFATYYCQQYSTVPWTFGQGTKVEIKRTVAAPSVFIFPPSDEQLKSGTASVVCLLNNFYPREAKVQWKVDNALQSGNSQESVTEQDSKDSTYSLSSTLTLSKADYEKHKVYACEVTHQGLSSPVTKSFNRGEC
notes: NRP1 (outer) / VEGF (inner) DVD-Ig; also called DVD696 DVD-Ig
With B2, the EC50 in test [1] amounted to 280 pM; with VEGF (VEGF 1-165 aa), 330 pM.

B3: DVD697 (bispecific antibody, human IgG1, kappa)
heavy: EVQLVESGGGLVQPGGSLRLSCAASGFSFSSEPISWVRQAPGKGLEWVSSITGKNGYTYYADSVKGRFTISADTSKNTAYLQMNSLRAEDTAVYYCARWGKKVYGMDVWGQGTLVTVSSGGGGGGGPEVQLVESGGGLVQPGGSLRLSCAASGYTFTNYGMNWVRQAPGKGLEWVGWINTYTGEPTYAADFKRRFTFSLDTSKSTAYLQMNSLRAEDTAVYYCAKYPHYYGSSHWYFDVWGQGTLVTVSS[human IgG1 constant region omitted here]
light: DIQMTQSPSSLSASVGDRVTITCRASQSISSYLAWYQQKPGKAPKLLIYGASSRASGVPSRFSGSGSGTDFTLTISSLQPEDFATYYCQQYMSVPITFGQGTKVEIKRGGGGGGPDIQMTQSPSSLSASVGDRVTITCSASQDISNYLNWYQQKPGKAPKVLIYFTSSLHSGVPSRFSGSGSGTDFTLTISSLQPEDFATYYCQQYSTVPWTFGQGTKVEIKRTVAAPSVFIFPPSDEQLKSGTASVVCLLNNFYPREAKVQWKVDNALQSGNSQESVTEQDSKDSTYSLSSTLTLSKADYEKHKVYACEVTHQGLSSPVTKSFNRGEC
notes: NRP1 (outer) / VEGF (inner) DVD-Ig; also called DVD697 DVD-Ig
B3: the EC50 in test [1] amounted to 270 pM; with VEGF (VEGF 1-165 aa) it was 420 pM.

B4: DVD698 (bispecific antibody, human IgG1, kappa)
heavy: EVQLVESGGGLVQPGGSLRLSCAASGFSFSSEPISWVRQAPGKGLEWVSSITGKNGYTYYADSVKGRFTISADTSKNTAYLQMNSLRAEDTAVYYCARWGKKVYGMDVWGQGTLVTVSSGGGGGGGGPEVQLVESGGGLVQPGGSLRLSCAASGYTFTNYGMNWVRQAPGKGLEWVGWINTYTGEPTYAADFKRRFTFSLDTSKSTAYLQMNSLRAEDTAVYYCAKYPHYYGSSHWYFDVWGQGTLVTVSS[human IgG1 constant region omitted here]
light: DIQMTQSPSSLSASVGDRVTITCRASQSISSYLAWYQQKPGKAPKLLIYGASSRASGVPSRFSGSGSGTDFTLTISSLQPEDFATYYCQQYMSVPITFGQGTKVEIKRGGGGGGGPDIQMTQSPSSLSASVGDRVTITCSASQDISNYLNWYQQKPGKAPKVLIYFTSSLHSGVPSRFSGSGSGTDFTLTISSLQPEDFATYYCQQYSTVPWTFGQGTKVEIKRTVAAPSVFIFPPSDEQLKSGTASVVCLLNNFYPREAKVQWKVDNALQSGNSQESVTEQDSKDSTYSLSSTLTLSKADYEKHKVYACEVTHQGLSSPVTKSFNRGEC
notes: NRP1 (outer) / VEGF (inner) DVD-Ig; also called DVD698 DVD-Ig
As for B4, the results for the EC50 (in test [1]; in the test with VEGF (VEGF 1-165 aa)) were 300 pM and 350 pM, respectively.

B5: D2E7-13C5.5L3F DVD-Ig LC12HC6 (bispecific antibody)
heavy: not shown
light: [about 100 residues omitted here]TVAAPSVFIFPPDIQMTQSPSSLSASVGDRVTISCRASQDIRNYLNWYQQKPGKAPKLLIFYTSKLHSGVPSRFSGSGSGTDYTLTISSLQPEDIATYYCQQGLTPPLTFGGGTKVEIKRTVAAPSVFIFPPSDEQLKSGTASVVCLLNNFYPREAKVQWKVDNALQSGNSQESVTEQDSKDSTYSLSSTLTLSKADYEKHKVYACEVTHQGLSSPVTKSFNRGEC
notes: TNF (outer) / IL-13 (inner) DVD-Ig of the D2E7-13C5.5L3F series
B5: the “Anti-IL-13 activity by A549 bioassay (IC50, nM)” value in test [2] stood at 0.52 nM. Moreover, the “Anti-TNF activity by L929 bioassay (IC50, nM)” value in test [3] worked out at 0.028 nM. Further, the Kd in test [4] stood at 402 pM; in test [5] it was 8 pM.

One may read the EC50 as the concentration at which the effect is half-maximal. Low values mean an effect from little substance, high ones a need for much substance. A word on the Kd: it is the concentration at which binding is half-saturated.
